According to paper PMC3155546 (PLoS ONE, 2011):
No constants are given. Whether binding was seen depends on the method and setting. For some of these results: In cells and extracts the contact can be indirect. Some binding calls cover weakened binding; strength is not graded here.

What was measured:
[1] = target: GST-TPPP1–219 (human) (UniProt O94811); assay: co-IP; both purified
[2] = target: His-PrP90–231 (UniProt P04156); assay: pull-down; […] (5 µM, […], pH 8.0; […]; both purified
[3] = target: His-PrP23–231 (UniProt P04156); assay: as above
[4] = target: GST-PrP23–231 (UniProt P04156); assay: co-IP; both purified
[5] = target: GST-TPPP100–219 (human) (UniProt O94811); assay: pull-down; both purified
[6] = target: GST-TPPP1–219 (human) (UniProt O94811); assay: pull-down; both purified
[7] = target: GST-TPPP50–219 (human) (UniProt O94811); assay: pull-down; both purified
[8] = target: GST-TPPP100–219 (human) (UniProt O94811); assay: co-IP; […] (5 µM) […], pH 8.0, 4 h; […]; both purified
[9] = target: GST-TPPP1–219 (human) (UniProt O94811); assay: as above
[10] = target: GST-TPPP50–219 (human) (UniProt O94811); assay: as above
[11] = target: full-length wild-type human PrP (aa 1–253) with five octarepeats (PG5) (human) (UniProt P04156); assay: co-IP
[12] = target: full-length TPPP expressed in HeLa (pcDNA3.1-TPPP) (human) (UniProt O94811); assay: co-IP

GST-PrP23–90 (from UniProt P04156 23-90) (domain or fragment)
binding [1]: no binding (tested: 5 µM)

GST-TPPP1–219 (from UniProt O94811 1-219)
binding [2]: binds | binding [3]: binds | binding [4]: binds

His-PrP23–231 (from UniProt P04156 23-231)
binding [5]: binds | binding [6]: binds | binding [7]: binds | binding [8]: binds | binding [9]: binds | binding [10]: binds

His-PrP90–231 (from UniProt P04156 90-231) (domain or fragment)
binding [9]: binds

full-length TPPP expressed in HeLa (pcDNA3.1-TPPP) (from UniProt O94811 1-219)
binding [11]: binds

full-length wild-type human PrP (aa 1–253) with five octarepeats (PG5) (from UniProt P04156 23-230)
binding [12]: binds
